Laboratory results as given in the supplement of paper PMC3334620.
Whole data set: some 33,000 sequences, median “E-score (-0.5 to 0.5)” near -0.01, cut for the highest 2% near 0.26. This is one part of the list.

The sequences below were run against Ste12 (UniProt P13574) (assay: PBM E-score (8-mer binding enrichment) (E-score (-0.5 to 0.5)); higher = stronger / more preferred TF binding; most listed sequences are background and not binding sites). Details: protein concentration: 200 nM; construct: GST-DNA-binding domain.
Outline: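 PURExpress in vitro transcription/translation supplied GST-tagged yeast transcription factors, either full-length or DNA-binding domain. Applied at about 100-200 nM to universal all-10-mer Agilent arrays double-stranded by primer extension, the bound protein was detected with fluorescent anti-GST. E-scores, modified Wilcoxon-Mann-Whitney statistics, were given by the Universal PBM Analysis Suite to ungapped eight-base words pooled with their reverse complements after masliner normalisation.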

Row | Sequence | PBM E-score
1 | ACCCTCTA | -0.119
2 | AACGATAG | 0.12
3 | ATACGTTA | 0.00095
4 | CTAGCCCC | -0.0142
5 | ATCAGAGC | 0.122
6 | GCACTAGA | -0.0307
7 | CCTCGGAA | 0.113
8 | CAAGCGAC | 0.0365
9 | ACTCATAG | -0.0812
10 | GCTTAGCA | -0.107
11 | CCTCGTGC | -0.0395
12 | CAATGCAC | -0.042
13 | CGAGCGGA | 0.0598
14 | CAGTAATA | 0.124
15 | CTTGGTAC | -0.0162
16 | AATATGCC | -0.21
17 | CTTTTCAC | 0.119
18 | CTGATTAA | 0.0273
19 | GGGACTAC | -0.06
20 | CATTAATG | 0.141
21 | AGAGGCTC | -0.293
22 | ATTTGTTA | 0.274
23 | GAGATTAA | -0.0406
24 | ACGGGCAG | 0.00316
25 | CCACAGTA | 0.0539

Row | Sequence | PBM E-score
26 | CGTCCAAG | -0.272
27 | ATCTTATC | 0.141
28 | TGTCTAAA | 0.0325
29 | ACCCACAC | -0.0854
30 | GGGCGCTA | -0.227
31 | ATCCCAAG | -0.0738
32 | AAATTGCT | 0.14
33 | CGCAGCAA | -0.249
34 | CCTGGGTC | -0.0574
35 | AGTTGATG | -0.123
36 | AAGTACAG | -0.165
37 | ATCTGAAG | 0.0795
38 | AATCGTTC | -0.0664
39 | GAGTTAAA | 0.19
40 | GGAAGGAC | -0.111
41 | GACGCAGA | -0.014
42 | CATAGATG | -0.0464
43 | GGAGAGCA | -0.154
44 | GAGGGCGC | -0.0659
45 | TGAGTAAA | 0.0686
46 | GGATAGGA | 0.049
47 | ACTTGGAT | 0.0871
48 | GAGCAGAA | -0.0605
49 | CGCGCCTA | 0.0604
50 | CGTGGAGC | -0.0859

Row | Sequence | PBM E-score
51 | CAGGAATG | -0.0309
52 | ATCCGTAA | 0.0503
53 | ACAAGGCG | 0.0176
54 | TCGCGCAA | 0.0392
55 | TTAAATAA | 0.249
56 | AGTTGTCG | -0.0338
57 | GAAATGGA | -0.191
58 | ACTATGCT | 0.073
59 | CAACACTA | 0.0388
60 | AACACATT | 0.181
61 | CATGGTCG | 0.00496
62 | GGCAACCC | -0.0508
63 | AGGCGGCA | -0.266
64 | CCTAAGAC | -0.115
65 | AACTCGGG | -0.0999
66 | AGATGTCG | 0.0449
67 | ACCCGCGA | 0.0816
68 | GTATTATA | 0.202
69 | ATAACCGG | -0.0698
70 | AGACTATG | -0.121
71 | ATGAGTTC | -0.135
72 | TATCAGAA | 0.108
73 | TCCGACCA | 0.113
74 | CTGCAGTC | -0.189
75 | AATATAGT | 0.113

Row | Sequence | PBM E-score
76 | ATATGAAA | 0.346
77 | ATAATTGG | 0.17
78 | GAGAAAAC | 0.0888
79 | AAATTACC | 0.197
80 | AGAGTAGC | -0.137
81 | TGGTAACA | 0.0801
82 | GAAAACGA | -0.0839
83 | CTCAGAGC | -0.168
84 | AAAAAAAT | 0.337
85 | GTGCGGCA | -0.18
86 | ACAATAGC | 0.0018
87 | ACTTAAGA | 0.0409
88 | CCGTCTGA | 0.0344
89 | CCGTTTGA | 0.056
90 | GGAACAAC | 0.108
91 | CCGCTCAC | -0.156
92 | ATCCTGCC | -0.0925
93 | ACGTTGGG | 0.0249
94 | GCTTACAC | -0.0301
95 | GAGGGAAC | -0.116
96 | GAGGTAAA | 0.334
97 | ACGGTATA | 0.0177
98 | GGAGAGCC | -0.0173
99 | AACGTGTC | -0.0223
100 | TCAGGAGA | 0.119

Row | Sequence | PBM E-score
101 | CCGTAACG | -0.0913
102 | AAGTGAAA | 0.291
103 | CTACAACA | -0.0211
104 | ACTATTGC | 0.101
105 | GCGCACTA | -0.0313
106 | GCGCGCCC | 0.0387
107 | CCATGAAG | -0.0229
108 | ATAGACGA | -0.0718
109 | AGTTCAGA | 0.0176
110 | CGCTCACA | -0.0983
111 | AGGACCTG | -0.216
112 | ATCAGCTA | 0.0454
113 | CTAGCCCA | 0.0776
114 | CGATGACA | 0.00062
115 | CTGGCGGA | -0.0918
116 | AGGATGTC | -0.164
117 | GAAACATA | 0.433
118 | ACAATACT | 0.148
119 | AAGCTTCA | 0.0617
120 | CTAGGACA | -0.143
121 | CGCGAGTC | -0.172
122 | CGAGTGTA | -0.11
123 | ACACGGAT | 0.0195
124 | CCTATAGG | -0.0861
125 | CACCGCCC | 0.27

Row | Sequence | PBM E-score
126 | CTTGCTGA | -0.103
127 | GTAAGGGA | 0.0319
128 | AAACGGGT | 0.184
129 | GCAAACCC | -0.0626
130 | AACGTTGC | 0.152
131 | AGCAGCGA | 0.0491
132 | ACGACATA | -0.127
133 | CTTAATCA | 0.183
134 | ATGACAAC | 0.00794
135 | AAGCGACT | -0.113
136 | GCTCAACA | -0.0854
137 | GAAACGTA | 0.325
138 | CCGAGGAC | 0.0114
139 | GAACAGCA | 0.0498
140 | ACAGTCGT | -0.0779
141 | GTGGCGAA | 0.108
142 | CGCGGCAC | -0.00599
143 | AAAATTCC | 0.208
144 | CACGAAGC | 0.029
145 | ACTTGCCT | -0.0482
146 | GTTTCCCA | 0.14
147 | GATGCGAC | 0.0455
148 | CCGACTTC | -0.126
149 | GCATTTGA | 0.116
150 | ACTTCGTC | -0.13

Row | Sequence | PBM E-score
151 | AGTTCCGA | 0.00275
152 | ACGGGGTA | -0.0388
153 | GGTTGTCA | -0.0244
154 | AGGACCTC | -0.00335
155 | AAGACTCT | -0.00466
156 | TGCATAAA | 0.254
157 | CCGCCTGC | -0.154
158 | CCACTCAA | 0.0727
159 | CTACCACA | 0.0376
160 | CATGGCGA | -0.0824
161 | ATGTTGGG | -0.078
162 | ATATGACA | 0.072
163 | CCAGCTGA | -0.0788
164 | CATAAAAC | 0.28
165 | AGGAAGGA | -0.226
166 | AACCCTTA | -0.00535
167 | TACAGCAA | 0.0552
168 | CGGGTTCC | -0.197
169 | AACTGAAC | 0.0813
170 | ATTCGACA | -0.0493
171 | AGGACGGC | -0.202
172 | AGCCGCGG | 0.0939
